Measurements: the antibiotic and cytotoxicity screens of Wong et al. (2023)
The list shows a part of the results.

What was measured:
[1] = tested on: HSkMC (human skeletal muscle cells); assay: cytotoxicity call (relative viability < 0.9); settings: 10 µM
[2] = tested on: HepG2; assay: cytotoxicity call (relative viability < 0.9); settings: 10 µM
[3] = tested on: S. aureus RN4220; assay: growth inhibition call (relative growth <= 0.2); settings: 50 µM

Row | Structure (SMILES) | cytotoxicity call [1] | cytotoxicity call [2] | growth inhibition call [3]
1 | C[C@@H]1CN([C@@H](C)CO)C(=O)Cc2cc(NC(=O)CCN3CCOCC3)ccc2O[C@@H]1CN(C)Cc1ccccc1 | inactive | inactive | inactive
2 | CC(C)NC(=O)Nc1ccc2c(c1)CC(=O)N([C@@H](C)CO)C[C@H](C)[C@H](CN(C)S(=O)(=O)c1ccc(F)cc1)O2 | inactive | inactive | inactive
3 | CO[C@@H]1CN(C)C(=O)c2cc(NC(=O)C3CCOCC3)ccc2OC[C@H](C)N(Cc2cccnc2)C[C@@H]1C | inactive | inactive | inactive
4 | CCCCn1nc(C2CC2)nc1Cn1ncnn1 | inactive | inactive | inactive
5 | C[C@H]1CCCCO[C@H](CN(C)C(=O)Nc2ccccc2)[C@@H](C)CN([C@@H](C)CO)C(=O)c2cc(NC(=O)Cc3ccccc3)ccc2O1 | inactive | inactive | inactive
6 | CCOC(=O)c1cc2c(c(-c3cccc(-c4cccc(F)c4)c3)n1)[C@H](CCO)N(S(=O)C(C)(C)C)C2 (stereo partly specified) | inactive | inactive | inactive
7 | C[C@@H]1CCCCO[C@H](CN(C)CC2CCCCC2)[C@@H](C)CN([C@H](C)CO)C(=O)c2cc(NS(=O)(=O)c3ccccc3)ccc2O1 | inactive | inactive | inactive
8 | CC(C)NC(=O)Nc1ccc2c(c1)CC(=O)N([C@@H](C)CO)C[C@@H](C)[C@@H](CN(C)S(=O)(=O)c1cn(C)cn1)O2 | inactive | inactive | inactive
9 | C[C@@H]1CN([C@@H](C)CO)C(=O)c2cc(NC(=O)Nc3ccc(C(F)(F)F)cc3)ccc2O[C@@H](C)CCCCO[C@H]1CN(C)Cc1ccc(Cl)c(Cl)c1 | inactive | inactive | inactive
10 | COc1ccc(NC(=O)N(C)C[C@@H]2OCCCC[C@@H](C)Oc3ccc(NS(=O)(=O)c4cccs4)cc3C(=O)N([C@H](C)CO)C[C@H]2C)cc1 | inactive | inactive | inactive
11 | Cc1cccc(C)c1Nc1nc2c(C)cc(C)c(C)c2s1 | inactive | inactive | inactive
12 | C[C@@H]1CN([C@@H](C)CO)C(=O)c2cc(NS(=O)(=O)c3cn(C)cn3)ccc2O[C@H]1CN(C)CC1CCCCC1 | inactive | inactive | inactive
13 | C[C@@H]1CN([C@@H](C)CO)C(=O)c2cc(NC(=O)Nc3ccc4c(c3)OCO4)ccc2O[C@H]1CN(C)S(C)(=O)=O | inactive | inactive | inactive
14 | COc1cccc(CNC(=O)C[C@@H]2C=C[C@@H](NC(=O)C3CCOCC3)[C@@H](CO)O2)c1 | inactive | inactive | inactive
15 | CC(C)C#Cc1cnc2c(c1)C(=O)N([C@H](C)CO)C[C@H](C)[C@H](CN(C)S(=O)(=O)c1cn(C)cn1)O2 | inactive | inactive | inactive
16 | COc1ccc(S(=O)(=O)N(C)C[C@H]2OCCCC[C@@H](C)Oc3ccc(NS(C)(=O)=O)cc3C(=O)N([C@@H](C)CO)C[C@@H]2C)cc1 | inactive | inactive | inactive
17 | C[C@@H]1CN([C@@H](C)CO)C(=O)Cc2cc(NS(=O)(=O)c3ccccc3)ccc2O[C@H]1CN(C)Cc1ccc(C(=O)O)cc1 | inactive | inactive | inactive
18 | COc1ccc(S(=O)(=O)Nc2ccc3c(c2)C(=O)N([C@@H](C)CO)C[C@@H](C)[C@H](CN(C)C(=O)Nc2c(C)noc2C)OCCCC[C@@H](C)O3)cc1 | inactive | inactive | inactive
19 | Oc1ccc(C2Oc3cc(O)cc(O)c3CC2O)cc1 (stereo unspecified) | inactive | inactive | inactive

Row | Structure (SMILES) | cytotoxicity call [1] | cytotoxicity call [2] | growth inhibition call [3]
20 | C[C@@H]1CN([C@H](C)CO)C(=O)c2cc(NC(=O)Cc3ccccc3)ccc2O[C@@H](C)CCCCO[C@H]1CN(C)Cc1ccc2c(c1)OCO2 | inactive | inactive | inactive
21 | C[C@H](CO)N1C[C@H](C)[C@@H](CN(C)S(=O)(=O)c2ccc(Cl)cc2)OCCCC[C@H](C)Oc2ccc(NC(=O)CCC(F)(F)F)cc2C1=O | inactive | inactive | inactive
22 | NC1(C#Cc2cncc(C(=O)N3CCOCC3)c2)CCCCC1 | inactive | inactive | inactive
23 | C[C@H](CO)N1C[C@H](C)[C@@H](CN(C)CC2CCCCC2)OCCCC[C@H](C)Oc2ccc(NC(=O)Nc3ccc4c(c3)OCO4)cc2C1=O | inactive | inactive | inactive
24 | Cc1noc(C)c1S(=O)(=O)N(C)C[C@H]1OCc2cn(nn2)CCCC(=O)N([C@@H](C)CO)C[C@H]1C | inactive | inactive | inactive
25 | C[C@H]1[C@H]2[C@H](Cc3ccccc3)NC(=O)[C@]23C(=O)N[C@H](Cc2ccccc2)C(=O)N2CCC[C@H]2C(=O)NC/C=C\C/C=C/[C@@H]3[C@@H]2O[C@]12C | inactive | inactive | inactive
26 | O=C(C[C@H]1CC[C@@H]2[C@H](COC[C@@H](O)CN2S(=O)(=O)c2ccc(Cl)cc2)O1)N[C@H]1CCN(Cc2ccccc2)C1 | inactive | inactive | inactive
27 | C[C@H]1CCCCO[C@@H](CN(C)Cc2ccc(C(=O)O)cc2)[C@@H](C)CN([C@@H](C)CO)C(=O)c2cc(NC(=O)Nc3ccc4c(c3)OCO4)ccc2O1 | inactive | inactive | inactive
28 | C=CCOC(=O)[C@@H]1[C@H]2C(=O)O[C@H](c3ccccc3)[C@H](c3ccccc3)N2[C@H](c2ccc(OCCOC(=O)[C@@H]3C[C@@H]4C(=O)N[C@@H](CC(C)C)C(=O)N4[C@@H]3c3ccc(O)cc3)cc2)[C@@]12C(=O)Nc1ccc(I)cc12 | inactive | inactive | inactive
29 | C[C@@H]1CN([C@H](C)CO)C(=O)c2cc(NC(=O)Nc3ccc(C(F)(F)F)cc3)ccc2O[C@@H](C)CCCCO[C@@H]1CN(C)C(=O)CCCN(C)C | inactive | inactive | inactive
30 | NNc1cccc(C(=O)O)c1 | inactive | inactive | inactive
31 | O=C(C[C@H]1C[C@@H]2c3cc(NC(=O)Nc4ccc(C(F)(F)F)cc4)ccc3O[C@@H]2[C@@H](CO)O1)NCc1ccc(Cl)cc1 | inactive | inactive | inactive
32 | Cc1ccc(S(=O)(=O)N(C)C[C@H]2Oc3ncc(C#CC4(O)CCCC4)cc3C(=O)N([C@@H](C)CO)C[C@@H]2C)cc1 | inactive | inactive | inactive
33 | CC(C)NC(=O)Nc1ccc2c(c1)CC(=O)N([C@H](C)CO)C[C@@H](C)[C@@H](CN(C)S(=O)(=O)c1cccs1)O2 | inactive | inactive | inactive
34 | COc1ccc(NC(=O)Nc2ccc3c(c2)CC(=O)N([C@H](C)CO)C[C@H](C)[C@H](CN(C)Cc2ccc(Cl)c(Cl)c2)O3)cc1 | inactive | active | inactive
35 | Cc1noc(C)c1NC(=O)Nc1ccc2c(c1)C(=O)N([C@H](C)CO)C[C@H](C)[C@H](CN(C)S(=O)(=O)c1ccc(Cl)cc1)OCCCC[C@H](C)O2 | inactive | inactive | inactive
36 | CO[C@H]1CN(C)C(=O)c2ccc(NC(=O)Nc3cccc(Cl)c3)cc2OC[C@H](C)N(C(=O)Nc2c(C)noc2C)C[C@@H]1C | inactive | inactive | inactive
37 | COc1ccc(S(=O)(=O)Nc2ccc3c(c2)C(=O)N([C@H](C)CO)C[C@H](C)[C@H](CN(C)C(=O)Nc2ccc(C(F)(F)F)cc2)OCCCC[C@H](C)O3)cc1 | inactive | inactive | inactive
